# According to the supplement of paper PMC3334620:
# Over roughly 33,000 sequences, “E-score (-0.5 to 0.5)” has its median near -0.054; the highest 2% begin near 0.39. Some of the results follow.
# Molecular target: Ylr278c (UniProt Q05854)
# Assay: PBM E-score (8-mer binding enrichment) (E-score (-0.5 to 0.5)); higher = stronger / more preferred TF binding; most listed sequences are background and not binding sites
# Settings: protein concentration: 200 nM; construct: GST-DNA-binding domain
# In short: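 PURExpress in vitro transcription/translation supplied GST-tagged yeast transcription factors, either full-length or DNA-binding domain. Applied at about 100-200 nM to universal all-10-mer Agilent arrays double-stranded by primer extension, the bound protein was detected with fluorescent anti-GST. E-scores, modified Wilcoxon-Mann-Whitney statistics, were given by the Universal PBM Analysis Suite to ungapped eight-base words pooled with their reverse complements after masliner normalisation.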
row,Sequence,PBM E-score
1,GTCACGCA,-0.158
2,ACCACCGG,0.366
3,CAGCAAGC,-0.271
4,ACTCACTC,0.0211
5,CACCACTC,0.102
6,AGCGGCAA,0.0714
7,GAGCCCCA,-0.0517
8,AATTGAAC,-0.176
9,ACCCCTGG,-0.0693
10,CCATACAG,-0.241
11,ACTATAGA,0.0377
12,AGCGCGCA,0.152
13,AATCCCTC,-0.0461
14,CGAGCTTC,0.028
15,CCATACTC,-0.027
16,CATTTGCA,-0.115
17,AAGTTGAA,-0.108
18,AGAACCTA,-0.227
19,ATGTCTCG,0.0207
20,AGTTCAAG,-0.028
21,ACCATCTA,-0.077
22,GCCTATGA,-0.194
23,GCTGACTA,-0.0839
24,GACGCAAA,-0.00443
25,TAGCTTAA,-0.198

row,Sequence,PBM E-score
1,ACTATGCA,-0.128
2,TAATATAA,0.121
3,GAAGCGCC,0.147
4,ATGCGGTC,0.163
5,AATGAGTG,-0.0185
6,CTGATCGC,-0.139
7,AAGAATCC,0.066
8,CCATGCGA,-0.0449
9,ATCACTAA,-0.0464
10,CCCGCCCC,0.361
11,AAGGATGC,-0.276
12,CCTGCTAG,-0.0936
13,ACATCTCG,0.0498
14,AGGCATTC,-0.0371
15,GAGTACCA,0.00448
16,AAACACCT,-0.135
17,TATCGTGA,-0.0632
18,AGGTGTAC,-0.2
19,AGTTCCAT,-0.105
20,AAGATGTG,-0.175
21,GGACTACC,0.193
22,ACGCCCAC,-0.0697
23,GGTTGTGA,-0.0147
24,GGCGTCTA,-0.096
25,TTAGACAA,0.0185

row,Sequence,PBM E-score
1,GCGCTGAA,0.102
2,AAGAAAAA,-0.0988
3,ATGACCTG,-0.135
4,ACGCACCG,0.11
5,CGTTGCGA,-0.109
6,CTACTGAG,-0.0898
7,TCCAAAGA,-0.154
8,CCTCAATA,-0.148
9,ATTACTGA,-0.318
10,CCTAAGCC,-0.073
11,CCCGAACC,0.251
12,CAAACCAG,-0.23
13,CCGGTGCG,0.369
14,CAGTGGTC,-0.0541
15,GGTCCTGA,-0.00471
16,GGTAACAC,-0.0507
17,CCTGGTAG,-0.236
18,CCTTATAC,-0.183
19,CAGTCACG,-0.108
20,CACACGCA,-0.147
21,CACACCGG,0.283
22,AAATATTT,-0.0704
23,CTGCTGGC,-0.119
24,ACCGTCCG,0.3
25,AATTTTCA,-0.091

row,Sequence,PBM E-score
1,GACACTCA,-0.115
2,CCACTCTA,-0.218
3,ACTCCACT,-0.269
4,CTGCCAGA,-0.129
5,ACAGCTTG,-0.187
6,TAATGCGA,-0.00926
7,CTTTCACC,0.111
8,ATATACCG,0.271
9,CGCAGCTA,-0.0597
10,AGTACACC,-0.0926
11,CACTGGGC,0.00217
12,GCTAATCC,0.159
13,CAAGATCG,0.047
14,CTGTGGAA,-0.0269
15,CTGTAAGC,-0.172
16,GGTGCATA,0.0221
17,TTGAGAAA,-0.137
18,GCGGACCA,0.279
19,ATGTAATA,-0.0246
20,CTTGAACA,-0.0133
21,CAAGAGCC,-0.0285
22,AAGCCGGA,0.417
23,AACGTCGC,-0.089
24,TATCTGCA,-0.177
25,ACCTCCCG,0.0782

row,Sequence,PBM E-score
1,AATCCGGT,0.442
2,CAGGGGAC,-0.151
3,CGATGGCG,0.145
4,TACAAGGA,0.0808
5,GGCTCCTA,-0.0379
6,AAATTCTT,-0.168
7,CTTCACCC,0.133
8,GAAACCAC,-0.11
9,ACGTGCAA,0.00724
10,GTTACGAA,-0.00304
11,CAGCCCGC,-0.0821
12,GACTAGAC,-0.291
13,CAAACACG,-0.0958
14,TGCGCTAA,0.0463
15,GCCGTTCC,0.123
16,ATTGGCAG,-0.0574
17,TATCTTGA,-0.0421
18,CAGCAAAG,-0.117
19,ACGCTGCC,0.0211
20,AAACAATA,0.158
21,AGTCTCTC,-0.131
22,GTCTCGAA,-0.299
23,GACATAGA,-0.106
24,CTCAAAAG,-0.0564
25,CGTATGCC,0.107

row,Sequence,PBM E-score
1,TACCGCCA,0.126
2,GCGCCAGA,-0.116
3,TCCATTAA,-5e-05
4,AAAGTGCG,0.203
5,GTATCCAC,-0.171
6,TTAGCAAA,-0.0537
7,ATTCATAG,-0.222
8,GCTTGTAC,-0.0773
9,CAATTGGC,-0.083
10,ACCGAACA,0.0403
11,CCGGAGCA,0.473
12,TGTACAAA,-0.0126
13,AGCTCTGC,-0.265
14,AGCTTGCG,-0.124
15,AATGTAGA,-0.0393
16,AGAGTTAG,0.0221
17,CTGTATAA,-0.0726
18,AAATTAAT,0.0494
19,TGACGCCA,-0.259
20,GAGCCGAC,0.114
21,CGCCTATA,0.173
22,CCTACACC,-0.00674
23,GCCTTAGA,-0.055
24,CATATGGA,-0.198
25,CTGAGAAG,-0.149

row,Sequence,PBM E-score
1,ATTGCCCA,-0.185
2,GACGGAGA,0.453
3,ACTAACCC,0.00135
4,AGTCATCG,-0.00753
5,TCGTGTAA,-0.0614
6,CGGGTCAG,0.246
7,CGCGAAAG,0.0257
8,CTTACTAA,-0.181
9,GATGAGAC,-0.0509
10,CTGCCTTC,-0.115
11,GCTCACCC,-0.0345
12,AAGCCCAT,-0.169
13,AAGGCCAA,-0.179
14,AACATCAT,-0.25
15,CCTATTGA,-0.216
16,AGACCTAT,-0.173
17,AGGCGTCC,0.0368
18,GGCGGAAC,0.349
19,CATCCAGC,-0.211
20,CCATGGCC,-0.189
21,GAGCTAGA,-0.0445
22,AACAAAAG,-0.201
